Experimental data: PubChem BioAssay AID485360 (National Center for Advancing Translational Sciences (NCATS), 2010)
The whole screen tested about 230,000 compounds, of which about 1,500 (0.65%) were called active. The shares of active, inactive and inconclusive entries below differ from those in the screen. Calls follow the shape of the dose curve; as a rule, active = well fitted inhibition curve with a large enough effect; inconclusive = small, poorly fitted or top-dose-only effect; inactive = no such curve, though single readings can be large or run the other way. A potency beside an inconclusive call is a rough fit, not a confirmed value.
% is scaled to controls: 0 for no effect and ±100 for the full control effect; potency is read from the fitted curve at half-maximal effect; tags tell the direction and shape of the fitted curve.
Also: nearly all actives have a fitted effect of over 60% in size.

These compounds were tested against Lethal(3)malignant brain tumor-like protein 1 (Homo sapiens) (UniProt Q9Y468) (assay: qHTS Assay for the Inhibitors of L3MBTL1). Details: AlphaScreen L3MBTL1–H3K9me1 peptide binding; activity, negative = inhibition: at 57.1 µM (top of the series).
UniProt Q9Y468, sequence (Q9Y468 whole entry, looked up): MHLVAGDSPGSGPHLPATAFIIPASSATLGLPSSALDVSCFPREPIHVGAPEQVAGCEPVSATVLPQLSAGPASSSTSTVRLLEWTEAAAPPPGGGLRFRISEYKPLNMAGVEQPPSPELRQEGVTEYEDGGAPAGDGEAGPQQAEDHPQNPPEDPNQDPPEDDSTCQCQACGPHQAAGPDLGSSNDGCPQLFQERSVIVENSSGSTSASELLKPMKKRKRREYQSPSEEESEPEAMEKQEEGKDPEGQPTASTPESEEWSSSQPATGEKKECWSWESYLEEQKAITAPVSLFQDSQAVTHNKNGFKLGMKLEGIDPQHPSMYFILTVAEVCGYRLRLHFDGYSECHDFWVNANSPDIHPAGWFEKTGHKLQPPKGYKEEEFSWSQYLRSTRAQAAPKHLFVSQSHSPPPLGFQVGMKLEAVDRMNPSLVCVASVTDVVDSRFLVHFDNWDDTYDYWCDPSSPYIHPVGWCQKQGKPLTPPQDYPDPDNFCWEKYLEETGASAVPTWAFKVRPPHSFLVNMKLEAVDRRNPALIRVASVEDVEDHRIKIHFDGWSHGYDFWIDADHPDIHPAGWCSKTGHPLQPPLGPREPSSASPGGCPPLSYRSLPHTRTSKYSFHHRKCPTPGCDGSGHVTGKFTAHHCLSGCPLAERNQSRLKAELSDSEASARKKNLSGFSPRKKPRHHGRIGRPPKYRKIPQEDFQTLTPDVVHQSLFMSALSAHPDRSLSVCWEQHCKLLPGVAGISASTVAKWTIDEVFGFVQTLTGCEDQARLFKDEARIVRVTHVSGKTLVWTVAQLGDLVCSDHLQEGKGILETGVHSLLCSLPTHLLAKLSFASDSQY
Method in brief: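 AlphaScreen proximity signal between nickel-chelate acceptor and streptavidin donor beads (final 10 ug/mL) reports binding of 50 nM L3MBTL1 to 75 nM biotin-H3 K9me1 peptide; complex incubated with compounds 30 min at room temperature; cefsulodin titration as control.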
In the case of `COc1ccc(/C=C2\SC(=S)N(Cc3cccnc3)C2=O)cc1C`, the “activity, negative = inhibition” value is reported as inactive: 0.31%.
In the case of `N#Cc1c(CSCC(=O)O)cc(=O)n2c1[nH]c1ccccc12`, the Potency is reported as inconclusive: 28.2 µM [inhibitor, single point].
With `COc1cc(OC)cc(C(=O)Oc2c(CN3CCOCC3)cc(Cl)c3cccnc23)c1` the Potency was active: 25.1 µM.
In the case of `COc1cc(/C=C2\CCc3c2nc2ccccc2c3C(=O)O)cc(OC)c1OC`, the Potency is reported as active: 3.98 µM.
`Cc1cc(C)n2nc(C(=O)OCC(=O)c3cc(C)n(C)c3C)nc2n1` was tested, and the Potency was inconclusive: 31.6 µM [inhibitor, single point].
`Cc1nn(-c2ccccc2)c(C)c1C(=O)OCC(=O)Nc1cccc(S(N)(=O)=O)c1` was tested, and the Potency was inconclusive: 28.2 µM [inhibitor, single point].
For `COc1cccc(C(=O)c2c[nH]c(C(=O)NCCCN(C)C)c2)c1`, the Potency was inconclusive: 39.8 µM [inhibitor, single point].
`COc1ccccc1-c1cc(SC)c(C#N)c(=O)o1` was tested, and the “activity, negative = inhibition” value was inactive: -10.2%.
With `CC(C)Oc1cccc(C(=O)Nc2ncn[nH]2)c1` the Potency was inconclusive: 31.6 µM [inhibitor, single point].
`CCOc1ccc(C(=O)NC(=S)N(Cc2ccccc2)Cc2ccccc2)cc1` was tested, and the Potency was inconclusive: 17.8 µM [inhibitor, partial curve].
For `Cc1cc(C)cc(-n2cc[nH]c2=S)c1`, the Potency was inconclusive: 0.708 µM [inhibitor, single point].
In the case of `CCN(C(=O)c1coc(=O)c(Br)c1)c1ccc2c(c1)OCO2`, the Potency is reported as inconclusive: 39.8 µM [inhibitor, single point].
With `N#Cc1nc(Cc2ccccc2)oc1N1CCC(Cc2ccccc2)CC1` the Potency was inconclusive: 28.2 µM [inhibitor, single point].
In the case of `O=C(CSC1=NCCS1)N1CCN(c2ccccc2)CC1`, the Potency is reported as inconclusive: 5.01 µM [inhibitor, single point].
With `CC(C)CNc1oc(-c2ccccc2Cl)nc1C#N` the Potency was inconclusive: 15.8 µM [inhibitor, partial curve].
`COc1c(O)cccc1/C=N/NC(=O)Cn1ccnc1C` was tested, and the Potency was inconclusive: 31.6 µM [inhibitor, single point].
For `COc1ccc(O)c(/C=c2/sc3nc4cc(C)c(C)cc4n3c2=O)c1`, the “activity, negative = inhibition” value was inactive: -9.71%.
In the case of `O=C(O)c1ccc(S(=O)(=O)N[C@H](Cc2ccc(O)cc2)C(=O)O)cc1`, the Potency is reported as inconclusive: 35.5 µM [inhibitor, single point].
With `CN(C(=O)COC(=O)/C=C/c1ccc(Cl)c(Cl)c1)c1c(N)n(Cc2ccccc2)c(=O)[nH]c1=O` the “activity, negative = inhibition” value was inactive: 3.39%.
For `O=C(CSc1ccc(-c2ccco2)nn1)c1ccccc1`, the Potency was inconclusive: 25.1 µM [inhibitor, single point].
For `Cc1ccc(S(=O)(=O)NCCC(=O)NNc2c(F)c(F)cc(F)c2F)cc1`, the Potency was inconclusive: 1.41 µM [inhibitor, single point].
`Cc1sc(NC(=O)/C=C/c2ccco2)c(C(=O)O)c1C` was tested, and the Potency was inconclusive: 31.6 µM [inhibitor, single point].
`O=[N+]([O-])c1ccc(N2CCCC2)cc1N1CCCC1` was tested, and the Potency was inconclusive: 25.1 µM [inhibitor, partial curve].
With `O=C(CC1Nc2ccccc2NC1=O)Nc1ccc2c(c1)OCO2` (stereo not given) the Potency was inconclusive: 39.8 µM [inhibitor, partial curve, poor fit].
For `COc1cc(OC)cc(C(=O)NNC(=O)Cc2cccs2)c1`, the Potency was inconclusive: 25.1 µM [inhibitor, single point].
With `CCN(C(=O)CSc1ncnc2sc(C)c(C)c12)C1CCS(=O)(=O)C1` (stereo not given) the Potency was inconclusive: 0.282 µM [inhibitor, full curve, poor fit].
In the case of `COc1ccc(C(=O)CSc2ccc(-c3ccc(C)cc3)nn2)cc1`, the “activity, negative = inhibition” value is reported as inactive: 11.4%.
With `Cn1nc(-c2ccccc2)c2cc([N+](=O)[O-])ccc21` the Potency was inconclusive: 39.8 µM [inhibitor, single point].
`CC(=O)c1sc(NCCOc2ccc(C)cc2)nc1C` was tested, and the Potency was inconclusive: 0.1 µM [inhibitor, full curve, poor fit].
With `Cc1sc2nc(C(C)C)nc(SCC(=O)NCc3ccco3)c2c1C` the Potency was inconclusive: 39.8 µM [inhibitor, partial curve].
With `CCN(C(=O)c1cc2c(s1)-c1ccccc1S(=O)(=O)C2)c1cc(OC)ccc1OC` the Potency was inconclusive: 35.5 µM [inhibitor, single point].
`O=C(NCCN1CCN(Cc2ccc([N+](=O)[O-])cc2)CC1)C(=O)Nc1ccccc1` was tested, and the Potency was inconclusive: 6.31 µM [inhibitor, single point].
For `Cc1ccc(NC(=O)c2noc3c2CCCCC3)cc1C`, the Potency was inconclusive: 39.8 µM [inhibitor, single point].
`Nc1ccc(O)cc1C(=O)OCC(=O)C12CC3CC(CC(C3)C1)C2` was tested, and the Potency was inconclusive: 25.1 µM [inhibitor, single point].
For `C=CCn1c(C(C)NC(=O)c2cccs2)n[nH]c1=S` (stereo not given), the “activity, negative = inhibition” value was inactive: -0.238%.
With `Cc1c(NC(=O)COC(=O)c2ccc(F)c(S(=O)(=O)N3CCOCC3)c2)c(=O)n(-c2ccccc2)n1C` the Potency was inconclusive: 0.398 µM [inhibitor, partial curve, poor fit].
In the case of `COc1cc2c(cc1O)C(Cc1ccc(O)cc1)NCC2` (stereo not given), the “activity, negative = inhibition” value is reported as inactive: 0.929%.
`Cc1[nH][nH]c(=O)c1C(c1ccc(-c2ccc(C(=O)O)cc2)o1)c1c(C)[nH][nH]c1=O` was tested, and the Potency was inconclusive: 39.8 µM [inhibitor, partial curve, poor fit].
`COc1cc([C@@H]2OC[C@@H]3[C@H]2CO[C@@H]3c2ccc3c(c2)OCO3)ccc1O` was tested, and the “activity, negative = inhibition” value was inactive: -1.31%.
`COc1ccc(C)cc1NC1=C(Cl)C(=O)N(C2CCCCC2)C1=O` was tested, and the Potency was inconclusive: 39.8 µM [inhibitor, single point].
In the case of `Cc1ccc(C(=O)NCC(=O)OCC(=O)c2cc(C)n(Cc3ccco3)c2C)cc1`, the “activity, negative = inhibition” value is reported as inactive: -12.7%.
`CCOc1ccc(OCC(=O)OCC(=O)N2CCN(C(=O)c3ccco3)CC2)cc1` was tested, and the Potency was inconclusive: 39.8 µM [inhibitor, single point].
For `COc1ccc(CN(C)CC(=O)Nc2cc(OC)c([N+](=O)[O-])cc2C)c(OC)c1`, the Potency was inconclusive: 5.62 µM [inhibitor, single point].
With `CN(C)c1ccc(/C(=N\O)C(F)(F)F)cc1` the “activity, negative = inhibition” value was inactive: 11.5%.
In the case of `O=C(C[n+]1ccccc1)Nc1ccccc1Br`, the Potency is reported as inconclusive: 7.94 µM [inhibitor, full curve, poor fit].
In the case of `O=C(O)c1ccc2c(c1)C(=O)N(C(Cc1ccccc1)C(=O)O)C2=O` (stereo not given), the “activity, negative = inhibition” value is reported as inactive: 19.5%.
For `CC(C)CNC(=O)CN(C1CCCCC1)S(C)(=O)=O`, the Potency was inconclusive: 0.794 µM [inhibitor, single point].
`C[n+]1cccc2c(Br)ccc([O-])c21` was tested, and the Potency was inconclusive: 20 µM [inhibitor, single point].
`COc1ccc(C(=O)N2CCC(C(=O)Nc3ccccc3C)CC2)cc1OC` was tested, and the Potency was inconclusive: 0.0891 µM [inhibitor, full curve, poor fit].
For `O=C(O)C1Nc2c(O)cc(Cl)c([N+](=O)[O-])c2C2C=CCC12` (stereo not given), the Potency was active: 0.316 µM.
For `O=C(O)c1ccc(NC2=C(Cl)C(=O)c3ccccc3C2=O)cc1`, the Potency was inconclusive: 22.4 µM [inhibitor, partial curve].
`COc1cc(CNc2ccc(N3CCN(C(C)=O)CC3)cc2)ccc1OCc1ccc(F)cc1` was tested, and the Potency was inconclusive: 10 µM [inhibitor, partial curve].
In the case of `COC(=O)c1ccc(/C=N/N2CCN(Cc3ccccc3Cl)CC2)cc1`, the Potency is reported as inconclusive: 22.4 µM [inhibitor, partial curve].
In the case of `CCOC(=O)C1=CNS(=O)(=O)NC1c1ccc(C[C@H](NC(=O)CNC(=O)CCc2ccccc2)C(N)=O)cc1` (stereo not given in full), the Potency is reported as inconclusive: 39.8 µM [inhibitor, single point].
For `O=C(N/N=C/c1cc(Cl)ccc1O)c1ccncc1`, the Potency was active: 25.1 µM.
For `S=C(NCCN1CCOCC1)Nc1ccc(-c2nc3ccccc3[nH]2)cc1`, the “activity, negative = inhibition” value was inactive: -5.93%.
`O=C(CSc1nnc(COc2ccccc2)n1Cc1ccco1)NCc1ccco1` was tested, and the Potency was inconclusive: 31.6 µM [inhibitor, single point].
In the case of `O=S(=O)(NCc1ccc(F)cc1)c1ccc(Br)cc1Br`, the “activity, negative = inhibition” value is reported as inactive: 12.4%.
With `O=[N+]([O-])c1cc(Cl)c2cccnc2c1O` the Potency was active: 31.6 µM.
For `COc1ccccc1NC(=O)COC(=O)c1ccc([N+](=O)[O-])s1`, the Potency was inconclusive: 12.6 µM [inhibitor, partial curve].
`CN1N=C2c3ccccc3CCCC2C1c1ccc(F)cc1` (stereo not given) was tested, and the Potency was inconclusive: 5.62 µM [inhibitor, single point].
`O=C(Nn1c(SCc2ccc([N+](=O)[O-])cc2)nc2ccccc2c1=O)c1ccc(F)cc1` was tested, and the Potency was inconclusive: 4.47 µM [inhibitor, partial curve].
With `CCc1cc2c(SCC(=O)NCC3CCCO3)ncnc2s1` (stereo not given) the “activity, negative = inhibition” value was inactive: 4.2%.
For `CN(C)C(=O)N1CCC(C(=O)NCC2CCCO2)CC1` (stereo not given), the “activity, negative = inhibition” value was inactive: -9.78%.
For `COc1ccc(CN(C(=O)c2ccc(-c3ccccc3)[nH]2)C(C(=O)NCC2CCCO2)c2ccc(C)o2)cc1` (stereo not given), the “activity, negative = inhibition” value was inactive: -16.5%.
With `N#Cc1sc2nc(-c3ccccc3)cc(-c3ccco3)c2c1N` the Potency was inconclusive: 25.1 µM [inhibitor, partial curve].
For `Cc1ccc(S(=O)(=O)N2CCN(C(=O)/C=C/c3ccco3)CC2)cc1`, the Potency was active: 28.2 µM.
For `Cc1ccc(Nc2nc(-c3ccc(S(=O)(=O)N4CCCC4)cc3)cs2)cc1C`, the “activity, negative = inhibition” value was inactive: -5.14%.
For `CCCC(C)NC(=O)c1ccc2[nH]c3c(c2c1)CC(C)CC3` (stereo not given), the “activity, negative = inhibition” value was inactive: 28.4%.
With `CC1CCc2nn(CC(=O)NCCCN3CCOCC3)cc2C1` (stereo not given) the Potency was inconclusive: 39.8 µM [inhibitor, single point].
